{"source": "the supplement of paper PMC4723716", "test_system": "Plasmodium falciparum NF54 stage V gametocytes", "assay": "viability index relative to DMSO control (fraction); higher = less gametocyte killing", "settings": "2.5 µM, incubation time: 72 h", "how_it_was_run": "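P. falciparum NF54 stage V gametocytes (serum-free medium, 0.75% gametocytemia, 1.25% hematocrit) were exposed to compound at 2.5 µM for 72 hr at 37°C under low oxygen, then stained with MitoTracker Red CMXRos and saponin for one to two hours. Red particles of 20–70 µm2 in one field per well were counted, and the viability index is that count scaled to the plate mean of solvent-only wells.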", "key": {"[1]": {"settings": "library set: Broad Institute DOS"}}, "note": "± gives the uncertainty stated by the source. The full ranking holds about 9,900 compounds; the median of “viability index relative to DMSO control” is about 1, and the lowest 2% start at about 0.85. Some of the results follow."}
{"smiles": "CCS(=O)(=O)N1C[C@]2(CN(C2)C(=O)c2cccnc2)c2c([C@H]1CO)n(C)c1cc(OC)ccc21", "values": [{"measurement": "viability index", "setting": "[1]", "value": "0.963 ± 0.013"}]}
{"smiles": "CO[C@@H]1CN(C)C(=O)c2ccc(NS(=O)(=O)CC(F)(F)F)cc2OC[C@@H](C)N(C(=O)NC(C)C)C[C@@H]1C", "values": [{"measurement": "viability index", "setting": "[1]", "value": "0.987 ± 0.0023"}]}
{"smiles": "CN(C[C@@H]1N[C@H](CO)[C@H]1c1ccccc1)C(=O)c1ccccn1", "values": [{"measurement": "viability index", "setting": "[1]", "value": "0.989 ± 0.043"}]}
{"smiles": "CC(C)C#Cc1ccc([C@H]2[C@@H](CO)N(C(=O)c3cccc(F)c3)[C@H]2C#N)cc1", "values": [{"measurement": "viability index", "setting": "[1]", "value": "1.12 ± 0.08"}]}
{"smiles": "CN(C)C(=O)c1cccc(-c2ccc([C@H]3[C@H]4CNC[C@@H]3N4Cc3cccnc3)cc2)c1", "values": [{"measurement": "viability index", "setting": "[1]", "value": "1.06 ± 0.023"}]}
{"smiles": "C[C@H](CO)N1C[C@H](C)[C@H](CN(C)C(=O)Nc2cccc(F)c2)Oc2cc(C#CC3(O)CCCC3)ccc2S1(=O)=O", "values": [{"measurement": "viability index", "setting": "[1]", "value": "1.05 ± 0.092"}]}
{"smiles": "CCCNC(=O)N1C[C@@H](C)[C@@H](OC)CN(C)C(=O)c2ccc(NC(=O)CC)cc2OC[C@@H]1C", "values": [{"measurement": "viability index", "setting": "[1]", "value": "1.1 ± 0.02"}]}
{"smiles": "CO[C@H](CN(C)Cc1ccc(-c2ccccn2)cc1)[C@H](C)CN(C(=O)Nc1ccc(F)cc1)[C@H](C)CO", "values": [{"measurement": "viability index", "setting": "[1]", "value": "1.03 ± 0.085"}]}
{"smiles": "O=C(Nc1ccc(F)cc1)N1C[C@H]2[C@@H](c3ccccc31)[C@H](CO)N2C(=O)c1ccncc1", "values": [{"measurement": "viability index", "setting": "[1]", "value": "1.031 ± 0.0079"}]}
{"smiles": "COc1cccc(-c2ccc([C@H]3[C@H]4CNC[C@@H]3N4CC3CCCCC3)cc2)c1", "values": [{"measurement": "viability index", "setting": "[1]", "value": "0.963 ± 0.029"}]}
{"smiles": "Cc1noc(C)c1NC(=O)Nc1cccc2c1O[C@H](CN(C)Cc1ccc(C(=O)Nc3ccccc3N)cc1)[C@H](C)CN([C@@H](C)CO)C2=O", "values": [{"measurement": "viability index", "setting": "[1]", "value": "0.951 ± 0.066"}]}
{"smiles": "CN(C)c1ccc2c(c1)[C@H]1C[C@H](CC(=O)NCc3ccccn3)O[C@H](CO)[C@H]1O2", "values": [{"measurement": "viability index", "setting": "[1]", "value": "1.01 ± 0.09"}]}
{"smiles": "O=C(O)C[C@@H]1C[C@@H]2c3cc(NC(=O)Cc4ccncc4)ccc3O[C@@H]2[C@H](CO)O1", "values": [{"measurement": "viability index", "setting": "[1]", "value": "1.06 ± 0.0013"}]}
{"smiles": "CO[C@@H](CN(C)CC1CCOCC1)[C@H](C)CN(C(=O)Nc1ccc(F)cc1)[C@H](C)CO", "values": [{"measurement": "viability index", "setting": "[1]", "value": "0.991 ± 0.11"}]}
{"smiles": "C[C@H](CO)N1C[C@H](C)[C@@H](CN(C)S(=O)(=O)c2cccs2)Oc2ccc(NC(=O)Nc3cccc4ccccc34)cc2C1=O", "values": [{"measurement": "viability index", "setting": "[1]", "value": "0.962 ± 0.041"}]}
{"smiles": "CNC[C@@H]1Oc2ccc(NC(=O)NC3CCCCC3)cc2CC(=O)N([C@@H](C)CO)C[C@H]1C", "values": [{"measurement": "viability index", "setting": "[1]", "value": "0.979 ± 0.044"}]}
{"smiles": "CCCC(=O)N1CC[C@@]2(CC1)CN([C@H](CO)c1[nH]c3cc(OC)ccc3c21)C(=O)Cc1ccccn1", "values": [{"measurement": "viability index", "setting": "[1]", "value": "0.968 ± 0.048"}]}
{"smiles": "C[C@@H]1CN([C@H](C)CO)C(=O)c2cccc(NC(=O)C3CCOCC3)c2O[C@@H]1CN(C)C(=O)Nc1cccc2ccccc12", "values": [{"measurement": "viability index", "setting": "[1]", "value": "1.01 ± 0.18"}]}
{"smiles": "O=C(NCC[C@H]1CC[C@H](NS(=O)(=O)Cc2ccccc2)[C@@H](CO)O1)C1CCCCC1", "values": [{"measurement": "viability index", "setting": "[1]", "value": "1 ± 0.026"}]}
{"smiles": "CC(C)CC#Cc1ccc([C@@H]2[C@@H](CO)N3C(=O)CN(S(=O)(=O)c4cccc(F)c4)C[C@@H]23)cc1", "values": [{"measurement": "viability index", "setting": "[1]", "value": "1 ± 0.013"}]}
{"smiles": "O=C(CC1CC1)N1CC2(C1)[C@H](c1ccccc1)[C@@H](CO)N2C(=O)c1ccccn1", "values": [{"measurement": "viability index", "setting": "[1]", "value": "1.11 ± 0.017"}]}
{"smiles": "CC(C)c1cn(CC[C@H]2CC[C@@H](NS(=O)(=O)c3ccc(F)cc3)[C@@H](CO)O2)nn1", "values": [{"measurement": "viability index", "setting": "[1]", "value": "1.09 ± 0.092"}]}
{"smiles": "C[C@@H]1CCCCO[C@@H](CN(C)Cc2ccncc2)[C@@H](C)CN([C@@H](C)CO)C(=O)c2cc(NS(=O)(=O)c3ccc(Cl)cc3)ccc2O1", "values": [{"measurement": "viability index", "setting": "[1]", "value": "1.09 ± 0.044"}]}
{"smiles": "COCCNC(=O)C[C@@H]1CC[C@@H]2[C@H](COC[C@@H](O)CN2Cc2ccc(Cl)c(Cl)c2)O1", "values": [{"measurement": "viability index", "setting": "[1]", "value": "1.15 ± 0.12"}]}
{"smiles": "Cc1cccc(S(=O)(=O)N2[C@@H]3c4cccc(=O)n4C[C@H]2[C@H](CO)[C@H]3C(=O)N(C)C)c1", "values": [{"measurement": "viability index", "setting": "[1]", "value": "1.074 ± 0.0077"}]}
{"smiles": "CC(C)NC(=O)N1[C@H](C#N)[C@H](c2ccc(C#CC3CCCCC3)cc2)[C@@H]1CO", "values": [{"measurement": "viability index", "setting": "library set: Broad Institute Blood Stage", "value": "0.822 ± 0.041"}]}
{"smiles": "COC(=O)C[C@H]1C[C@H]2c3cc(NC(=O)C4CCOCC4)ccc3O[C@H]2[C@H](CO)O1", "values": [{"measurement": "viability index", "setting": "[1]", "value": "1.07 ± 0.026"}]}
{"smiles": "C[C@@H]1CN([C@@H](C)CO)C(=O)Cc2cc(NS(=O)(=O)c3ccc(Cl)cc3)ccc2O[C@H]1CN(C)C(=O)Nc1ccc(C(F)(F)F)cc1", "values": [{"measurement": "viability index", "setting": "[1]", "value": "0.909 ± 0.028"}]}
{"smiles": "O=C(C1CCOCC1)N1C[C@@H]2[C@H](c3ccccc31)[C@@H](CO)N2C(=O)Cc1ccccn1", "values": [{"measurement": "viability index", "setting": "[1]", "value": "1.06 ± 0.053"}]}
{"smiles": "O=C(NCC[C@H]1CC[C@H](NS(=O)(=O)Cc2ccccc2)[C@H](CO)O1)C1CCCCC1", "values": [{"measurement": "viability index", "setting": "[1]", "value": "0.997 ± 0.084"}]}
{"smiles": "C[C@@H]1CCCCO[C@@H](CN(C)C(=O)CCCN(C)C)[C@@H](C)CN([C@H](C)CO)C(=O)c2cc(NC(=O)Nc3ccc4c(c3)OCO4)ccc2O1", "values": [{"measurement": "viability index", "setting": "[1]", "value": "1.055 ± 0.007"}]}
{"smiles": "C[C@@H]1CN([C@H](C)CO)C(=O)c2cccc(NC(=O)NC3CCCCC3)c2O[C@H]1CN(C)Cc1ccc(C(F)(F)F)cc1", "values": [{"measurement": "viability index", "setting": "[1]", "value": "1.01 ± 0.083"}]}
{"smiles": "C[C@@H]1CN([C@@H](C)CO)C(=O)c2c(c3ccccc3n2C)-c2ccccc2CO[C@H]1CN(C)C(=O)[C@H](Cc1ccccc1)N(C)C", "values": [{"measurement": "viability index", "setting": "[1]", "value": "1.05 ± 0.046"}]}
{"smiles": "C[C@@H]1CN([C@H](C)CO)C(=O)CCCn2nncc2CO[C@H]1CN(C)C(=O)Nc1ccccc1C(F)(F)F", "values": [{"measurement": "viability index", "setting": "[1]", "value": "0.9587 ± 0.0074"}]}
{"smiles": "CO[C@@H]1CN(C)C(=O)c2cc(NC(=O)Nc3c(C)noc3C)ccc2OC[C@@H](C)NC[C@@H]1C", "values": [{"measurement": "viability index", "setting": "[1]", "value": "0.953 ± 0.054"}]}
{"smiles": "C/C=C/c1ccccc1[C@H]1[C@H](C#N)N(C(=O)CN2CCOCC2)[C@H]1CO", "values": [{"measurement": "viability index", "setting": "[1]", "value": "1.08 ± 0.06"}]}
{"smiles": "CN1CCN(C(=O)C[C@H]2CC[C@H]3[C@H](COc4ccc(NC(=O)C5CCOCC5)cc4C(=O)N3C)O2)CC1", "values": [{"measurement": "viability index", "setting": "[1]", "value": "1.11 ± 0.069"}]}
{"smiles": "O=C(C[C@@H]1C[C@H]2c3cc(NC(=O)NC4CCCC4)ccc3O[C@H]2[C@H](CO)O1)NCc1ccccc1F", "values": [{"measurement": "viability index", "setting": "[1]", "value": "1.04 ± 0.11"}]}
{"smiles": "OC[C@@H]1[C@@H](c2ccc(-c3cccnc3)cc2)[C@H]2CN(Cc3ccccn3)CCCCN12", "values": [{"measurement": "viability index", "setting": "[1]", "value": "1.07 ± 0.051"}]}
{"smiles": "C/C=C/c1ccc([C@@H]2[C@H](CO)N[C@H]2CN(C(=O)c2ccccc2F)C(C)C)cc1", "values": [{"measurement": "viability index", "setting": "[1]", "value": "1.01 ± 0.047"}]}
{"smiles": "COc1ccc2c3c([C@H](CO)N(Cc4ccc(Cl)cc4)C[C@]33CN(C3)C(=O)NC(C)C)n(C)c2c1", "values": [{"measurement": "viability index", "setting": "[1]", "value": "1.03 ± 0.11"}]}
{"smiles": "Cc1noc(C)c1S(=O)(=O)N1[C@@H]2CNC[C@H]1[C@H]2c1ccc(-c2cccc(F)c2)cc1", "values": [{"measurement": "viability index", "setting": "[1]", "value": "1.09 ± 0.1"}]}
{"smiles": "O=C(Nc1ccccc1F)N[C@@H]1CC[C@@H](CCNC(=O)C2CC2)O[C@@H]1CO", "values": [{"measurement": "viability index", "setting": "[1]", "value": "1.17 ± 0.11"}]}
{"smiles": "COc1ccc2c3c([C@H](CO)N(Cc4ccccc4)C[C@]33CN(C3)S(=O)(=O)c3ccc(C)cc3)n(C)c2c1", "values": [{"measurement": "viability index", "setting": "[1]", "value": "0.921 ± 0.08"}]}
{"smiles": "CCC(=O)N1[C@H](CO)[C@@H](c2ccccc2)[C@H]1CN(C)C(=O)CN1CCOCC1", "values": [{"measurement": "viability index", "setting": "[1]", "value": "1.05 ± 0.053"}]}
